Laboratory results reported in publication PMC6212790.
The list shows a part of the results. At the low end of the ranking the order means little.

molecular target: T1, GST-Rok (full length) (UniProt O34857); test: protein binding microarray; conditions: Rok is a gene silencer of Bacillus subtilis; high values mean tight binding; most listed sequences are background and not binding sites; double strand, one strand shown;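 further: rank score from −0.5 (least bound) to 0.5 (best bound)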
T1 sequence: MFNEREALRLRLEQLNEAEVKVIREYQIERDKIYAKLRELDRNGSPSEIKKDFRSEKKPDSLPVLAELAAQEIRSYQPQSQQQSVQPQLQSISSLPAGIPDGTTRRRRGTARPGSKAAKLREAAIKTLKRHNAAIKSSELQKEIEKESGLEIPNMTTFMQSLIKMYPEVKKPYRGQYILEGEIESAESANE

Question: CTAAACTC was tested. Which binding signal did it give?
Answer: 0.235 E-score

Question: Which binding signal does the source give for CACCCAGA here?
Answer: -0.257 E-score

Question: For AAAGAGCT, which binding signal is on record?
Answer: -0.123 E-score

Question: Which binding signal does the source give for CGAGATAC here?
Answer: 0.175 E-score

Question: Which binding signal does the source give for CGTCACCA here?
Answer: -0.222 E-score

Question: GCGCCGAC was tested. Which binding signal did it give?
Answer: -0.252 E-score

Question: For CGGCTCGC, which binding signal is on record?
Answer: -0.24 E-score

Question: Which binding signal does the source give for AGAATTGG here?
Answer: 0.15 E-score

Question: With GCATTGGA as the sequence, how does the binding signal read?
Answer: -0.178 E-score

Question: Which binding signal does the source give for ACATCCAC here?
Answer: 0.145 E-score

Question: Which binding signal does the source give for AATGGACA here?
Answer: 0.012 E-score

Question: With CGTCTAAC as the sequence, how does the binding signal read?
Answer: -0.0989 E-score

Question: How did the binding signal turn out when ACGCTTCA was run?
Answer: -0.198 E-score

Question: How did the binding signal turn out when GCGGTACA was run?
Answer: 0.0494 E-score

Question: Which binding signal does the source give for CATTGGAA here?
Answer: -0.00919 E-score

Question: For AATCGAAC, which binding signal is on record?
Answer: 0.0924 E-score

Question: CGGGTTTA was tested. Which binding signal did it give?
Answer: -0.0551 E-score

Question: AAAGCGAG was tested. Which binding signal did it give?
Answer: -0.217 E-score

Question: CACAGTCC was tested. Which binding signal did it give?
Answer: -0.304 E-score

Question: AACTAGTA was tested. Which binding signal did it give?
Answer: 0.471 E-score

Question: AGGCGGGC was tested. Which binding signal did it give?
Answer: -0.301 E-score

Question: Which binding signal does the source give for CAAACCCA here?
Answer: 0.0236 E-score

Question: Which binding signal does the source give for ACACTTCC here?
Answer: 0.116 E-score

Question: For ACCCTACT, which binding signal is on record?
Answer: 0.149 E-score

Question: How did the binding signal turn out when AAAACGTG was run?
Answer: 0.0424 E-score

Question: GCAGAAAA was tested. Which binding signal did it give?
Answer: 0.0261 E-score

Question: How did the binding signal turn out when AGACAAGA was run?
Answer: 0.0696 E-score

Question: Which binding signal does the source give for AGCCGGCG here?
Answer: -0.362 E-score

Question: GCGTTCTA was tested. Which binding signal did it give?
Answer: 0.148 E-score

Question: For ATCGCCTG, which binding signal is on record?
Answer: -0.102 E-score

Question: With TCCCAACA as the sequence, how does the binding signal read?
Answer: 0.0903 E-score

Question: For CACATTCC, which binding signal is on record?
Answer: -0.115 E-score

Question: TGGACCAA was tested. Which binding signal did it give?
Answer: -0.322 E-score

Question: Which binding signal does the source give for CTCTTCCC here?
Answer: -0.161 E-score

Question: With CACTTCTG as the sequence, how does the binding signal read?
Answer: 0.125 E-score

Question: How did the binding signal turn out when GATGTGAA was run?
Answer: 0.125 E-score

Question: How did the binding signal turn out when CCATTGTC was run?
Answer: -0.0553 E-score

Question: Which binding signal does the source give for GACCGCGA here?
Answer: -0.313 E-score

Question: How did the binding signal turn out when TCAGGAGA was run?
Answer: -0.112 E-score

Question: ATACCCCA was tested. Which binding signal did it give?
Answer: -0.253 E-score

Question: With CCTATTAC as the sequence, how does the binding signal read?
Answer: 0.285 E-score

Question: For TAGAAAGA, which binding signal is on record?
Answer: 0.222 E-score

Question: CACCGCGA was tested. Which binding signal did it give?
Answer: -0.00762 E-score

Question: Which binding signal does the source give for GCTCTTGA here?
Answer: -0.244 E-score

Question: For CTCTAGAG, which binding signal is on record?
Answer: -0.0355 E-score

Question: With CCACGGCC as the sequence, how does the binding signal read?
Answer: -0.29 E-score

Question: ACAATGAG was tested. Which binding signal did it give?
Answer: 0.0652 E-score

Question: With GGATGACA as the sequence, how does the binding signal read?
Answer: 0.0232 E-score

Question: How did the binding signal turn out when ACTCCTCA was run?
Answer: -0.164 E-score

Question: With CCTCGGTC as the sequence, how does the binding signal read?
Answer: -0.411 E-score

Question: Which binding signal does the source give for GGAGTTTA here?
Answer: 0.0513 E-score

Question: Which binding signal does the source give for CTCCATGA here?
Answer: -0.125 E-score

Question: ACATCGAA was tested. Which binding signal did it give?
Answer: 0.0366 E-score

Question: For AGCTAAAC, which binding signal is on record?
Answer: 0.224 E-score

Question: How did the binding signal turn out when CTGATTGC was run?
Answer: 0.137 E-score

Question: ACTGCATC was tested. Which binding signal did it give?
Answer: 0.0257 E-score

Question: Which binding signal does the source give for ATGTTGCA here?
Answer: -0.0338 E-score

Question: Which binding signal does the source give for TTTCGAAA here?
Answer: 0.183 E-score

Question: With CAGAGTAC as the sequence, how does the binding signal read?
Answer: -0.15 E-score

Question: TAGACCAA was tested. Which binding signal did it give?
Answer: -0.209 E-score

Question: Which binding signal does the source give for ACTGATTG here?
Answer: 0.228 E-score

Question: Which binding signal does the source give for CACCGGCA here?
Answer: -0.185 E-score

Question: For ACGGTTTC, which binding signal is on record?
Answer: -0.0509 E-score

Question: ACTTTCTC was tested. Which binding signal did it give?
Answer: 0.0817 E-score

Question: With CCATGGGG as the sequence, how does the binding signal read?
Answer: -0.359 E-score

Question: CCAAGGTC was tested. Which binding signal did it give?
Answer: -0.183 E-score

Question: CAGCTTAC was tested. Which binding signal did it give?
Answer: -0.133 E-score

Question: With CTGAATGC as the sequence, how does the binding signal read?
Answer: -0.201 E-score

Question: Which binding signal does the source give for GCTACGAC here?
Answer: 0.026 E-score

Question: With CGGCTACC as the sequence, how does the binding signal read?
Answer: -0.119 E-score

Question: Which binding signal does the source give for CCGGAAGA here?
Answer: -0.345 E-score

Question: With GGACGGAA as the sequence, how does the binding signal read?
Answer: -0.131 E-score

Question: With AATGCCGG as the sequence, how does the binding signal read?
Answer: -0.0976 E-score

Question: Which binding signal does the source give for GACAGCAA here?
Answer: -0.16 E-score

Question: With ATACTACG as the sequence, how does the binding signal read?
Answer: 0.339 E-score

Question: For CGCGTCCA, which binding signal is on record?
Answer: -0.16 E-score

Question: Which binding signal does the source give for CCGAAGGC here?
Answer: -0.23 E-score

Question: How did the binding signal turn out when GACGGGTA was run?
Answer: -0.0749 E-score

Question: CCCGTTTC was tested. Which binding signal did it give?
Answer: -0.0198 E-score

Question: With CGCCACCC as the sequence, how does the binding signal read?
Answer: -0.19 E-score

Question: For CTCTAGGA, which binding signal is on record?
Answer: -0.0682 E-score

Question: ATTGCAAC was tested. Which binding signal did it give?
Answer: 0.178 E-score

Question: How did the binding signal turn out when AGACGAAA was run?
Answer: 0.169 E-score

Question: For CGTTTCGA, which binding signal is on record?
Answer: 0.0684 E-score

Question: With AGATATTC as the sequence, how does the binding signal read?
Answer: 0.187 E-score

Question: Which binding signal does the source give for AAGAACCT here?
Answer: 0.0515 E-score
